The supplement of paper PMC4967469
The IC50 comes from the fitted curve, where viability falls to half of the control; a fit beyond the top or the lowest dose is shown as a bound at that dose. AUC is the area under the same curve over the 256-fold range up to the top dose, as a fraction; the more sensitive the line, the further below 1. For some of these results: The top dose, if marked as inferred, comes from the curve model; the source does not state it. For some of these results: An entry number marks a drug with two screens in the source, which often give different values.

How the values were obtained:
Experiment in all cases: Viability of human cancer cell lines after 72 h of drug (GDSC screen)
CUDC-101 = compound: C#Cc1cccc(Nc2ncnc3cc(OC)c(OCCCCCCC(=O)NO)cc23)c1 [CUDC-101]; conditions: top dose 5.12 µM; top dose inferred
Protocol: (§1)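 Human cancer cell lines in 384-well plates, medium with 10% serum, drug for 72 h over a 256-fold dose range (nine 2-fold or five 4-fold steps up to the top dose). Adherent lines were fixed and stained with the nucleic acid dye Syto60, suspension lines read with resazurin; signal relative to control wells, capped at 0 and 100%. One two-parameter sigmoid per drug and line, fitted in a mixed model over all curves with the slope shared within a line.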

AC220 = compound: CC(C)(C)c1cc(NC(=O)Nc2ccc(-c3cn4c(n3)sc3cc(OCCN5CCOCC5)ccc34)cc2)no1 [AC220]; conditions: top dose 1.024 µM; top dose inferred
Protocol: as §1

RDEA119 = compound: COc1cc(F)c(F)c(Nc2ccc(I)cc2F)c1NS(=O)(=O)C1(C[C@H](O)CO)CC1 [RDEA119]; conditions: top dose 5 µM, top dose inferred
Protocol: as §1

JNK-9L = compound: Fc1cc(-c2ccnc(Nc3ccc(-n4cnc(N5CCOCC5)n4)cc3)n2)cc(N2CCOCC2)c1 [JNK-9L]; conditions: top dose 5.12 µM; top dose inferred
Protocol: as §1

OSU-03012 = compound: NCC(=O)Nc1ccc(-n2nc(C(F)(F)F)cc2-c2ccc3c(ccc4ccccc43)c2)cc1 [OSU-03012]; conditions: top dose 16 µM; top dose inferred
Protocol: as §1

5-Fluorouracil = compound: O=c1[nH]cc(F)c(=O)[nH]1 [5-Fluorouracil]; conditions: top dose 32 µM; top dose inferred
Protocol: as §1

QS11 = compound: OC[C@H](Cc1ccccc1)Nc1nc(Oc2ccc3c(c2)CCC3)nc2c1ncn2Cc1ccc(-c2ccccc2)cc1 [QS11]; conditions: top dose 10.24 µM
Protocol: as §1

| Cell Line | AUC (CUDC-101) | IC50 (CUDC-101) [nM] | AUC (AC220) | IC50 (AC220) [nM] | AUC (RDEA119; screen: GDSC drug entry 1014) | IC50 (RDEA119; screen: GDSC drug entry 1014) [nM] | AUC (RDEA119; screen: GDSC drug entry 1526) | IC50 (RDEA119; screen: GDSC drug entry 1526) [nM] | AUC (JNK-9L) | IC50 (JNK-9L) [nM] | AUC (OSU-03012) | IC50 (OSU-03012) [nM] | AUC (5-Fluorouracil) | IC50 (5-Fluorouracil) [nM] | AUC (QS11) | IC50 (QS11) [nM] |
| --- | --- | --- | --- | --- | --- | --- | --- | --- | --- | --- | --- | --- | --- | --- | --- | --- |
| LS-1034 (large intestine, adherent) | 0.66 | 934 | 0.984 | > 1020 | 0.724 | 1450 | 0.543 | 415 | 0.705 | 1300 | 0.578 | 1670 | 0.601 | 3890 | 0.922 | > 10200 |
| LU-65 (large cell lung carcinoma, suspension) | 0.609 | 677 | 0.978 | > 1020 | 0.987 | > 5000 | 0.98 | > 5000 | 0.764 | 2180 | 0.847 | 15100 | 0.745 | 11600 | 0.934 | > 10200 |
| LU-134-A (small cell lung carcinoma, suspension) | 0.484 | 289 | 0.953 | > 1020 | 0.977 | > 5000 | 0.974 | > 5000 | 0.567 | 495 | 0.957 | > 16000 | 0.834 | 22800 | 0.962 | > 10200 |
| LU-135 (small cell lung carcinoma, suspension) | 0.389 | 168 | 0.954 | > 1020 | 0.992 | > 5000 | 0.99 | > 5000 | 0.529 | 379 | 0.453 | 762 | 0.924 | > 32000 | 0.653 | 1570 |
| LU-139 (small cell lung carcinoma, suspension) | 0.567 | 514 | 0.946 | > 1020 | 0.843 | > 5000 | 0.963 | > 5000 | 0.755 | 2200 | 0.837 | 15400 | 0.896 | > 32000 | 0.934 | > 10200 |
| LU-165 (small cell lung carcinoma, suspension) | 0.59 | 583 | 0.92 | > 1020 | 0.988 | > 5000 | 0.985 | > 5000 | 0.661 | 950 | 0.859 | > 16000 | 0.95 | > 32000 | 0.97 | > 10200 |
| LXF-289 (lung adenocarcinoma, adherent) | 0.638 | 766 | 0.987 | > 1020 | 0.795 | 2280 | 0.823 | 2890 | 0.627 | 710 | 0.622 | 2150 | 0.944 | > 32000 | 0.853 | 7760 |
| M059J (glioma, adherent) | 0.606 | 643 | 0.985 | > 1020 | 0.919 | > 5000 | 0.915 | > 5000 | 0.499 | 318 | 0.798 | 8340 | 0.843 | 25600 | 0.931 | > 10200 |
| MC116 (B-cell lymphoma, suspension) | 0.225 | 69.7 | 0.999 | > 1020 | 0.999 | > 5000 | 0.999 | > 5000 | 0.571 | 475 | 0.86 | 7480 | 0.703 | 6160 | 0.984 | > 10200 |
| MC-CAR (haematopoietic neoplasm, suspension) | 0.439 | 223 | 0.971 | > 1020 | 0.839 | 2900 | 0.928 | > 5000 | 0.533 | 389 | 0.626 | 2130 | 0.409 | 1160 | 0.898 | > 10200 |
| MC-IXC (neuroblastoma, adherent) | 0.455 | 249 | 0.996 | > 1020 | 0.972 | > 5000 | 0.996 | > 5000 | 0.434 | 222 | 0.503 | 1020 | 0.673 | 5250 | 0.947 | > 10200 |
| MDA-MB-330 (breast, adherent) | 0.609 | 665 | 0.942 | > 1020 | 0.986 | > 5000 | – | – | 0.657 | 931 | 0.847 | 14400 | 0.977 | > 32000 | 0.849 | 9380 |
| MDA-MB-361 (breast, adherent) | 0.431 | 207 | 0.989 | > 1020 | 0.887 | > 5000 | 0.95 | > 5000 | 0.652 | 840 | 0.833 | 10300 | 0.979 | > 32000 | 0.984 | > 10200 |
| MDA-MB-415 (breast, adherent) | 0.893 | > 5120 | 0.983 | > 1020 | 0.871 | > 5000 | 0.913 | > 5000 | 0.711 | 1560 | 0.817 | 13100 | 0.981 | > 32000 | 0.98 | > 10200 |
| MDST8 (large intestine, adherent) | 0.667 | 931 | 0.984 | > 1020 | 0.6 | 586 | 0.246 | 58.3 | 0.817 | 2820 | 0.841 | 11000 | 0.966 | > 32000 | 0.964 | > 10200 |
